Measured values published in the supplement of paper PMC4604168 (melanoma cell lines).
Some of the results follow. Single values are uncertain, as repeats are few or missing.

test system: COLO800; assay: cell count relative to DMSO control; melanoma cells; higher = more viable cells; conditions: library dose: standard library concentration; 72 h
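Further: cells treated in 1,536-well plates, then fixed and DAPI-stained, with nuclei counted from automated high-throughput microscope images.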

Question: Which cell count does the source give for `N#CC[C@H](C1CCCC1)n1cc(-c2ncnc3[nH]ccc23)cn1` [ruxolitinib] + Nc1ccn([C@@H]2O[C@H](CO)[C@@H](O)C2(F)F)c(=O)n1 [gemcitabine] (first compound 5 µM, partner dose 0.002 µM) here?
Answer: The cell count was 58.2%.

Question: How did the cell count turn out when `Cc1cc(Nc2cc(N3CCN(C)CC3)nc(Sc3ccc(NC(=O)C4CC4)cc3)n2)n[nH]1` [Tozasertib] + CCN(CC)CCNC(=O)c1c(C)[nH]c(/C=C2\C(=O)Nc3ccc(F)cc32)c1C [sunitinib] (first compound 0.03 µM, partner dose 2 µM) was run?
Answer: The cell count was 51.3%.

Question: Which cell count does the source give for `Cc1cc(Nc2cc(N3CCN(C)CC3)nc(Sc3ccc(NC(=O)C4CC4)cc3)n2)n[nH]1` [Tozasertib] + Nc1ncn([C@H]2C[C@H](O)[C@@H](CO)O2)c(=O)n1 [decitabine] (first compound 0.03 µM, partner dose 0.5 µM) here?
Answer: The cell count was 34.5%.

Question: `N#CC[C@H](C1CCCC1)n1cc(-c2ncnc3[nH]ccc23)cn1` [ruxolitinib] + Cc1cc([N+](=O)[O-])ccc1NS(=O)(=O)c1cc(Cl)ccc1Cl [FH535] (first compound 5 µM, partner dose 5 µM) was tested. Which cell count did it give?
Answer: The cell count was 87.5%.

Question: How did the cell count turn out when `CC[C@]1(O)C[C@H]2CN(CCc3c([nH]c4ccccc34)[C@@](C(=O)OC)(c3cc4c(cc3OC)N(C=O)[C@H]3[C@@](O)(C(=O)OC)[C@H](OC(C)=O)[C@]5(CC)C=CCN6CC[C@]43[C@@H]65)C2)C1` [vincristine] + Nc1nc(F)nc2c1ncn2[C@@H]1O[C@H](CO)[C@@H](O)[C@@H]1O [fludarabine] (first compound 0.0005 µM, partner dose 1 µM) was run?
Answer: Its cell count is 111%.

Question: For `Cc1cc(Nc2cc(N3CCN(C)CC3)nc(Sc3ccc(NC(=O)C4CC4)cc3)n2)n[nH]1` [Tozasertib] + C[C@]1(O)C[C@@H](c2nc(-c3ccc4ccc(-c5ccccc5)nc4c3)c3c(N)nccn32)C1 [OSI906] (first compound 0.03 µM, partner dose 2 µM), which cell count is on record?
Answer: Its cell count is 31.7%.

Question: With `Cc1cc(Nc2cc(N3CCN(C)CC3)nc(Sc3ccc(NC(=O)C4CC4)cc3)n2)n[nH]1` [Tozasertib] + Cn1c(=O)n(-c2ccc(C(C)(C)C#N)cc2)c2c3cc(-c4cnc5ccccc5c4)ccc3ncc21 [NVP-BEZ235] (first compound 0.03 µM, partner dose 0.02 µM) as the compound, how does the cell count read?
Answer: Its cell count is 54.6%.

Question: How did the cell count turn out when `CC[C@]1(O)C[C@H]2CN(CCc3c([nH]c4ccccc34)[C@@](C(=O)OC)(c3cc4c(cc3OC)N(C=O)[C@H]3[C@@](O)(C(=O)OC)[C@H](OC(C)=O)[C@]5(CC)C=CCN6CC[C@]43[C@@H]65)C2)C1` [vincristine] + C=CCn1c(=O)c2cnc(Nc3ccc(N4CCN(C)CC4)cc3)nc2n1-c1cccc(C(C)(C)O)n1 [MK1775] (first compound 0.0005 µM, partner dose 0.1 µM) was run?
Answer: Its cell count is 30.2%.

Question: Which cell count does the source give for `Cc1cc(Nc2cc(N3CCN(C)CC3)nc(Sc3ccc(NC(=O)C4CC4)cc3)n2)n[nH]1` [Tozasertib] + N#Cc1c(O)c2c(-c3ccc(-c4ccccc4O)cc3)csc2[nH]c1=O [A769662] (first compound 0.03 µM, partner dose 10 µM) here?
Answer: The cell count was 81.6%.

Question: Which cell count does the source give for `Cc1cc(Nc2cc(N3CCN(C)CC3)nc(Sc3ccc(NC(=O)C4CC4)cc3)n2)n[nH]1` [Tozasertib] + CN(C)S(=O)(=O)c1ccc2c(c1)/C(=C/c1cc3c([nH]1)CCCC3)C(=O)N2 [SU6656] (first compound 0.03 µM, partner dose 2 µM) here?
Answer: The cell count was 23.3%.

Question: `N#CC[C@H](C1CCCC1)n1cc(-c2ncnc3[nH]ccc23)cn1` [ruxolitinib] + O=C(O)C(=O)Nc1sc2c(c1C(=O)O)CCNC2 [TCS401] (first compound 5 µM, partner dose 8.33333 µM) was tested. Which cell count did it give?
Answer: Its cell count is 173%.

Question: For `Cc1cc(Nc2cc(N3CCN(C)CC3)nc(Sc3ccc(NC(=O)C4CC4)cc3)n2)n[nH]1` [Tozasertib] + COc1cc2ncnc(Nc3ccc(Oc4ccccc4)cc3)c2cc1OC [SrcI1] (first compound 0.03 µM, partner dose 10 µM), which cell count is on record?
Answer: The cell count was 50%.

Question: For `Cc1cc(Nc2cc(N3CCN(C)CC3)nc(Sc3ccc(NC(=O)C4CC4)cc3)n2)n[nH]1` [Tozasertib] + CN(c1ncccc1CNc1nc(Nc2ccc3c(c2)CC(=O)N3)ncc1C(F)(F)F)S(C)(=O)=O [PF562271] (first compound 0.03 µM, partner dose 0.4 µM), which cell count is on record?
Answer: The cell count was 124%.

Question: For `N#CC[C@H](C1CCCC1)n1cc(-c2ncnc3[nH]ccc23)cn1` [ruxolitinib] + Cn1cnc2c(F)c(Nc3ccc(Br)cc3Cl)c(C(=O)NOCCO)cc21 [selumetinib] (first compound 5 µM, partner dose 0.075 µM), which cell count is on record?
Answer: The cell count was 146%.

Question: With `N#CC[C@H](C1CCCC1)n1cc(-c2ncnc3[nH]ccc23)cn1` [ruxolitinib] + c1cc(-c2cnn3cc(-c4ccc(OCCN5CCCCC5)cc4)cnc23)ccn1 [Dorsomorphin] (first compound 5 µM, partner dose 2 µM) as the compound, how does the cell count read?
Answer: Its cell count is 81.7%.

Question: How did the cell count turn out when `Cc1cc(Nc2cc(N3CCN(C)CC3)nc(Sc3ccc(NC(=O)C4CC4)cc3)n2)n[nH]1` [Tozasertib] + Cc1cn(-c2cc(NC(=O)c3ccc(C)c(Nc4nccc(-c5cccnc5)n4)c3)cc(C(F)(F)F)c2)cn1 [nilotinib] (first compound 0.03 µM, partner dose 1 µM) was run?
Answer: The cell count was 119%.

Question: With `CC[C@]1(O)C[C@H]2CN(CCc3c([nH]c4ccccc34)[C@@](C(=O)OC)(c3cc4c(cc3OC)N(C=O)[C@H]3[C@@](O)(C(=O)OC)[C@H](OC(C)=O)[C@]5(CC)C=CCN6CC[C@]43[C@@H]65)C2)C1` [vincristine] + Cc1nc(Nc2ncc(C(=O)Nc3c(C)cccc3Cl)s2)cc(N2CCN(CCO)CC2)n1 [dasatanib] (first compound 0.0005 µM, partner dose 0.02 µM) as the compound, how does the cell count read?
Answer: The cell count was 72.5%.

Question: `CC[C@]1(O)C[C@H]2CN(CCc3c([nH]c4ccccc34)[C@@](C(=O)OC)(c3cc4c(cc3OC)N(C=O)[C@H]3[C@@](O)(C(=O)OC)[C@H](OC(C)=O)[C@]5(CC)C=CCN6CC[C@]43[C@@H]65)C2)C1` [vincristine] + O=C(O)c1ccc2c(c1)nc(Nc1cccc(Cl)c1)c1ccncc12 [CX4945] (first compound 0.0005 µM, partner dose 2 µM) was tested. Which cell count did it give?
Answer: The cell count was 50.1%.

Question: For `N#CC[C@H](C1CCCC1)n1cc(-c2ncnc3[nH]ccc23)cn1` [ruxolitinib] + O=C(Nc1cccc(Cl)c1)Nc1ncc(CCNc2ncnc3ccsc23)s1 [SNS314] (first compound 5 µM, partner dose 0.004 µM), which cell count is on record?
Answer: Its cell count is 24.3%.

Question: With `CC[C@]1(O)C[C@H]2CN(CCc3c([nH]c4ccccc34)[C@@](C(=O)OC)(c3cc4c(cc3OC)N(C=O)[C@H]3[C@@](O)(C(=O)OC)[C@H](OC(C)=O)[C@]5(CC)C=CCN6CC[C@]43[C@@H]65)C2)C1` [vincristine] + Cn1c(Nc2ccc(C(F)(F)F)cc2)nc2cc(Oc3ccnc(-c4ncc(C(F)(F)F)[nH]4)c3)ccc21 [CHIR265] (first compound 0.0005 µM, partner dose 0.4 µM) as the compound, how does the cell count read?
Answer: The cell count was 92.7%.

Question: With `Cc1cc(Nc2cc(N3CCN(C)CC3)nc(Sc3ccc(NC(=O)C4CC4)cc3)n2)n[nH]1` [Tozasertib] + Nc1nc(F)nc2c1ncn2[C@@H]1O[C@H](CO)[C@@H](O)[C@@H]1O [fludarabine] (first compound 0.03 µM, partner dose 1 µM) as the compound, how does the cell count read?
Answer: Its cell count is 34.1%.

Question: For `Cc1cc(Nc2cc(N3CCN(C)CC3)nc(Sc3ccc(NC(=O)C4CC4)cc3)n2)n[nH]1` [Tozasertib] + COc1cc(N2CCC(N3CCN(C)CC3)CC2)ccc1Nc1ncc(Cl)c(Nc2ccccc2S(=O)(=O)C(C)C)n1 [NVP-TAE684] (first compound 0.03 µM, partner dose 0.4 µM), which cell count is on record?
Answer: Its cell count is 41.2%.

Question: `Cc1cc(Nc2cc(N3CCN(C)CC3)nc(Sc3ccc(NC(=O)C4CC4)cc3)n2)n[nH]1` [Tozasertib] + C=C(c1ccc(C(=O)O)cc1)c1cc2c(cc1C)C(C)(C)CCC2(C)C [Bexarotene] (first compound 0.03 µM, partner dose 10 µM) was tested. Which cell count did it give?
Answer: Its cell count is 64.3%.

Question: With `Cc1cc(Nc2cc(N3CCN(C)CC3)nc(Sc3ccc(NC(=O)C4CC4)cc3)n2)n[nH]1` [Tozasertib] + CC(=O)O[C@@]12CO[C@@H]1C[C@H](O)[C@@]1(C)C(=O)[C@H](O)C3=C(C)[C@@H](OC(=O)[C@H](O)[C@@H](NC(=O)OC(C)(C)C)c4ccccc4)C[C@@](O)([C@@H](OC(=O)c4ccccc4)[C@H]21)C3(C)C [Docetaxel] (first compound 0.03 µM, partner dose 0.0005 µM) as the compound, how does the cell count read?
Answer: The cell count was 33.9%.
